# From PubChem BioAssay AID1362 (SRMLSC, 2008)
# “And” between values parts separate entries of the source, which are not always exact repeats. Equal entries are not always repeated. The list shows a part of the results. Shown are side measurements of this screen, not its main read-out; they come without a call. The list favours compounds with an active or inconclusive main result.
# Test: growth inhibition of WT strain, primary screen, mitochondrial fusion inhibitor project, WT and mutant strains, chemical genetic (AID 1362); also: tested in S. cerevisiae
# Conditions: mitochondrial fusion phenotypic screen, at 10 µM
row,SMILES,inhibition
1,CC1CN(c2oc(Cc3cccc4ccccc34)nc2C#N)CC(C)O1 (stereo not drawn),-0.29%
2,O=C(c1ccccc1)c1cc(Cl)ccc1N1C(=O)C=CC1=O,17.4%
3,CCOc1ccc(NC(=S)N(CCCN2CCCC2)Cc2cccn2Cc2ccc(Cl)cc2)cc1,21.4%
4,CC(C)CCn1c(=O)c2ccccc2c2ccccc2c1=O,33.9%
5,Cc1cccc(-n2c(=O)c3c(n4cnnc24)-c2ccccc2CC32CCCCC2)c1,11.6%
6,COc1ccc(N(C(=O)c2ccco2)S(=O)(=O)c2cc(Cl)c(Cl)cc2Cl)cc1,25.8%
7,Cc1ccc(-c2csc(NC(=O)c3ccc(-c4ccccc4)cc3)n2)o1,75.5%
8,O=c1cc2c(nn1Cc1cccc(Cl)c1)-c1ccccc1CC2,57.2%
9,CCCOc1ccc(-c2nc(OCC)c3ccccc3n2)cc1,22.8%
10,CCCCCC[n+]1c(-c2ccccc2)csc1Nc1ccccc1,9.43%
11,COc1ccc(-c2csc(NC(=O)c3ccccc3NS(=O)(=O)c3ccc(F)c(F)c3)n2)cc1,85.4%
12,COc1cc2c(cc1NC(=O)Nc1ccc(C)cc1)oc1ccccc12,-5.51%
13,CCN(C(=O)c1cnc(N2CCN(c3ncccn3)CC2)c2ccccc12)c1cccc(Cl)c1,29.9%
14,COc1cc(OC)nc(Oc2ccccc2C(=O)Oc2ccc(Cl)cc2)n1,27.7%
15,COc1cc(Cl)c(C)cc1NC(=O)CN(C)Cc1cccc(OC)c1OC,29.5%
16,S=c1[nH]nc(COc2cccc(Cl)c2)n1Cc1ccccc1,40.8%
17,Cc1ccccc1OCc1n(CC(=O)OC2CC(C)CCC2C(C)C)c2ccccc2[n+]1C (stereo not drawn),31.1% and 21.5%
18,Cc1cccc(N2CCN(C(=O)c3cc4n(n3)C(C(F)(F)F)CC(c3ccco3)N4)CC2)c1C (stereo not drawn),33.2%
19,CC(=O)N(CCC(Cc1ccccc1)c1ccc2c(c1)OCO2)Cc1ccccc1F (stereo not drawn),57%
20,Cc1ccc(S(=O)(=O)c2c(C)nn(C(C)(C)C)c2OC(=O)CC(C)C)cc1,17.4%
21,COc1ccccc1-c1cc(C(F)(F)F)nc(NCc2ccco2)n1,54.6%
22,CCc1ccc2ncc(S(=O)(=O)c3ccc(C)c(C)c3)c(N3CCCC3)c2c1,-0.88%

row,SMILES,inhibition
1,Cc1cc(C)c2nc(N3CCCC(C(=O)N4CCN(c5ncccn5)CC4)C3)sc2c1 (stereo not drawn),57.5%
2,O=[N+]([O-])c1ccc(-c2nc(-c3cccs3)c(-c3cccs3)[nH]2)cc1,61%
3,O=C1NC(=S)S/C1=C\c1ccc(SCc2ccccc2)o1,81.4%
4,c1ccc(Nc2cccc(Nc3ccccc3)c2)cc1,35.3%
5,COc1cc(/C=N/NC(=Nc2ccc(C)cc2)c2nc3ccccc3s2)ccc1O,33%
6,O=C(COC(=O)c1cc(-c2cccc(Br)c2)nc2ccccc12)NCC1CCCO1 (stereo not drawn),19.2%
7,CC1C/C(=N\NC(=S)NC(C)C)CC(C)(C)C1 (stereo not drawn),64.1%
8,COc1cc(/C=C(\C#N)c2nc3ccccc3s2)cc([N+](=O)[O-])c1O,37.2%
9,Cc1ccc(NC(=O)c2cc(N3C(=O)C=CC3=O)ccc2N2CCOCC2)cc1Cl,61.9%
10,CCOC(=O)c1nc(Nc2ccc(Nc3ccccc3)cc2)c2ccccc2n1,51.6%
11,COc1ccccc1N=Nc1nc(-c2ccccc2)c(-c2ccccc2)[nH]1,14.1%
12,COC(=O)c1c(NC(=O)c2ccccc2)sc(Cc2ccccc2)c1C,28.9%
13,CC1CC1C(=O)OCC(=O)NCc1ccc(Cl)cc1Cl (stereo not drawn),-1.28%
14,O=C(Nc1ccc(Cl)c(Cl)c1)O/N=C/c1ccncc1,72.1%
15,CCN(CC)c1nc(-c2ccccn2)nc(-c2ccccc2)c1C#N,55.4%
16,Clc1ccc2ncc(-c3nnnn3-c3ccccc3)c(-c3ccccc3)c2c1,15.1%
17,Cc1cc(Nc2nc(Cl)c(Cl)cc2Cl)n(-c2ccccc2)n1,1.73%
18,Cc1ccc(Cl)cc1NC(=S)N1CCC(c2ccccc2)C1 (stereo not drawn),22.9%
19,Cc1ccccc1/C(N)=N/OC(=O)N1c2ccccc2Sc2ccccc21,-8.53%
20,Cc1nc2ccc(S(=O)(=O)Nc3cccc(-c4nc5cccnc5s4)c3)cc2s1,26.1%
21,CCCn1nnc(NC(=O)c2ccc(-c3cccc(Cl)c3)o2)n1,-7.65%
22,CCCCS(=O)(=O)/C=C\C=C/S(=O)(=O)CCCC,84.2%

row,SMILES,inhibition
1,Cc1cccc(Cn2nc(-n3cccc3)c3c(C)cc(C)nc32)c1,11.2%
2,N#CC1=C(N)C2=CCCC[C@H]2[C@H](c2ccc(Br)cc2)C1(C#N)C#N,15.6%
3,C[N+]1(CC(=O)Nc2ccc(F)cc2)CCN(C(=O)c2ccco2)CC1,20.9%
4,CCCN(CCC)C(=S)NC(=O)c1ccc(-c2ccccc2)cc1,59.3%
5,C1=C(CCNc2ncnc3c2[nH]c2ccccc23)CCCC1,76.9%
6,Brc1ccc(-c2nnc(-c3ccccc3)c(N3CCSCC3)n2)cc1,40.7%
7,CCCCOP(=O)(c1ccc(N(C)C)cc1)C(Nc1ccccc1)c1ccccc1 (stereo not drawn),27.6%
8,CC1/C(=N/O)CC(c2ccccc2)N(C)C1c1ccccc1 (stereo not drawn),98.4%
9,CCCCCOc1ccc(Br)cc1CSC(=N)N,35.5%
10,COc1cc(CNn2c(C)n[nH]c2=S)cc(Cl)c1OCc1ccc(F)cc1,30.5%
11,CC(C)=C1C2CCC1C1C(=O)N(c3nc(-c4ccccc4)c(C)s3)C(=O)C21 (stereo not drawn),15.3%
12,CCCCn1c(-c2csc(C(C)C)c2)n[nH]c1=S,55.6%
13,CCc1ccc(OCc2n[nH]c(=S)n2Cc2ccccc2)cc1,44.2%
14,CCOC(=O)C1=C(C)Nc2sc(C(=O)c3ccc(F)cc3)c(N)c2C1c1ccc(C(=O)OC)cc1 (stereo not drawn),3.39%
15,CC(C)(C)c1cc(C(c2cccnc2)N2CCN(CCO)CC2)cc(C(C)(C)C)c1O (stereo not drawn),46.2%
16,COc1ccc(C)cc1NC(=S)NC(C)c1ccc(OC)c(OC)c1 (stereo not drawn),20.3%
17,CCCCc1c(C)nc2ccc(Br)cc2c1SCCC#N,19.8%
18,CN(/N=C\c1ccc(O)c(O)c1)c1nc(-c2ccccc2)cc(-c2ccccc2)n1,57.3%
19,CCOC(=O)c1c(C)[nH]c(C)c1C(=O)COC(=O)c1cc2ccccc2cc1O,-4.27%
20,c1csc(-c2nc3c4ccccc4c4ccccc4c3[nH]2)c1,39.3%
21,Cc1ccc(-n2sc3ccccc3c2=O)cc1S(=O)(=O)N1CCCCC1,90.5%
22,CCc1ccc(OCC2c3cc(OC)c(OC)cc3CCN2C(=S)NC)cc1 (stereo not drawn),20.6%

row,SMILES,inhibition
1,c1ccc(-c2cc(-c3nc4ccccc4[nH]3)c3ccccc3n2)cc1,39.9%
2,Cc1cc(NC(=S)N(Cc2ccc(Br)cc2)Cc2ccc(C(=O)O)cc2)ccc1Cl,5.61%
3,Cc1sc(NC(=O)c2ccco2)c(C(c2ccc(F)cc2)N2CCN(C)CC2)c1C (stereo not drawn),1.52%
4,O=C1/C(=C/Nc2ccc3c(c2)OCO3)CCc2ccccc21,39.1%
5,S=C(NCC1CCCCC1)Nc1ccc(Oc2ccccc2)cc1,42.3%
6,COc1ccccc1/C(C)=N/NC(=S)NCc1ccccc1,59.1%
7,C/C(CCc1ccc2c(c1)OCO2)=N\NC(=S)NC(C)C,26.7%
8,O=C(OCn1ncc(Br)c(Br)c1=O)c1ccc(F)cc1,84.9%
9,C=CCc1cccc(CNc2nc3ccccc3n2C(C)C)c1O,14.2%
10,Cc1ccc(N(C)C(=O)c2ccc3c(Cl)c4c(nc3c2)CCC4)cc1C,27.3%
11,O=[N+]([O-])c1cccc(N/N=C/c2cccc(O)c2O)c1,53.4%
12,CC(C)(C)[C@@H]1C=C(C(=O)N2CCN(Cc3ccccc3)CC2)O[C@H](OCc2ccc(CO)cc2)C1,11.3%
13,CCOC(=O)N1CCC(N2Cc3cccc(C(=O)Nc4ccc(CC)cc4)c3C2=O)CC1,50%
14,Cc1cc(Br)c(OCc2ccc(C(=O)N/N=C3\CC4CC=CC34)cc2)c(Br)c1 (stereo not drawn),13.9%
15,COC(=O)CCC(=O)COc1ccc(OC)cc1C#N,-11%
16,Cc1ccc(Sc2ncnc3onc(C)c23)c(C)c1,38.5%
17,O=C1NC(=S)S/C1=C\c1ccc(SCc2ccco2)o1,54.6%
18,CCCS(=O)(=O)c1c(S(=O)(=O)CCC)c2cc(CC)ccn2c1C(=O)OC,38.7%
19,O=C(Nc1nnc(C2CC2)s1)c1cc(-c2ccccc2)nn1-c1ccccc1,6.37%
20,O=C(NCCN1CCOCC1)c1ccc(=O)oc1,15.4%
21,Nc1ccccc1Nc1cc(-c2ccccc2)nn1-c1cccc(Cl)c1,19.5%
22,Cc1ccccc1C(=O)Oc1ccc(Sc2ccc(O)cc2)cc1,33%

row,SMILES,inhibition
1,O=C(NNC(=S)NC(=O)C12CC3CC(CC(C3)C1)C2)c1ccncc1,57.1%
2,CC(=O)N(Cc1cc(=O)[nH]c2ccccc12)c1cccc(C)c1,16.4%
3,CN1CCN(CCCN2c3ccccc3Sc3ccc(Cl)cc32)CC1,56.1% and 93.8%
4,O=C1S/C(=C\c2ccc(O)c([N+](=O)[O-])c2)C(=O)N1Cc1cccc([N+](=O)[O-])c1,67.5%
5,C/C(=N\Nc1nc2ccccc2s1)c1ccc(Br)s1,87.8%
6,O=C(Cc1ccccc1)NNc1c2ccccc2nc2ccccc12,33.2%
7,C=CCNC(=S)NNC(=O)COc1ccc(Cl)cc1Cl,60.6%
8,Clc1ccc(CN2CCN(c3ncnc4scc(-c5cccs5)c34)CC2)cc1,55.3%
9,CC1(C(=O)N(Cc2ccccc2)Cc2ccccc2)CC1(Br)Br (stereo not drawn),10.9%
10,Cc1nc(N2CCCCC2C)c2c(C)c(C(=O)Nc3ccccc3C(F)(F)F)sc2n1 (stereo not drawn),26.6%
11,CCCC(=O)N1CCN(c2ccc(NC(=O)c3ccc([N+](=O)[O-])o3)cc2Cl)CC1,82.1%
12,CCc1cccc(CC)c1NC(=O)/C(C#N)=C/c1ccccc1C(F)(F)F,26.1%
13,O=C(CSCC(=O)OCn1nnc2ccccc2c1=O)Nc1ccc(Cl)cc1,6.67%
14,Cc1ccc(NC(=O)c2cc(-c3ccccc3)nn2-c2ccccc2)c(Br)c1,2.94%
15,Cc1cc(C)nc(NC(=O)/C=C/c2ccc(Cl)cc2Cl)c1,68.7%
16,S=C(NCCSCc1c(Cl)cccc1Cl)Nc1ccccc1,59%
17,Cc1cc(=O)oc2cc(OCC3CC(c4ccc(Cl)cc4)=NO3)ccc12 (stereo not drawn),35.6%
18,S=C(Nc1ccc(Nc2ccccc2)cc1)NC1CCCCCC1,62.1%
19,O=C(N/N=C/c1cccc(O)c1)c1ccc(COc2ccccc2Br)cc1,20.7%
20,Cc1ccc(C)c(-n2[nH]c3c4c(ccc3c2=O)C(=O)c2ccccc2C4=O)c1,39.6%
